Test results as given in patent US20150218244A1 (Hoffmann-La Roche, published 2015).

T1: IL-10 receptor (IL-10R) on freshly isolated primary blood monocytes (human, UniProt Q13651 22-578; Q08334 20-325)
T1 sequence (looked up) 1: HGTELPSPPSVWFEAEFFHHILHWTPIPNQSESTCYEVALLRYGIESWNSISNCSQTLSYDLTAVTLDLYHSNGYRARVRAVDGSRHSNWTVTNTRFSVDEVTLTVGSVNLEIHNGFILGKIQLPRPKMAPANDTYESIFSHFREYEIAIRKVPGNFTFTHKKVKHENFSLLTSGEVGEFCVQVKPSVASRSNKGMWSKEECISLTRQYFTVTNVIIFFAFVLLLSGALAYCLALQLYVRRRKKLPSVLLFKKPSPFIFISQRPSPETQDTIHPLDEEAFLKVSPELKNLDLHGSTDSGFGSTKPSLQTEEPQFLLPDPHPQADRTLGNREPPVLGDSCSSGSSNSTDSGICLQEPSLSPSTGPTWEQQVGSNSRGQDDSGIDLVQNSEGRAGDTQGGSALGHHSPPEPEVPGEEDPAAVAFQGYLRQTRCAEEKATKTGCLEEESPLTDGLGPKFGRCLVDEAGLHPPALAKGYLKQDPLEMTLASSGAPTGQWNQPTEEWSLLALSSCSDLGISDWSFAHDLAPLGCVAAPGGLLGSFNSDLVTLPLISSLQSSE
T1 sequence (looked up) 2: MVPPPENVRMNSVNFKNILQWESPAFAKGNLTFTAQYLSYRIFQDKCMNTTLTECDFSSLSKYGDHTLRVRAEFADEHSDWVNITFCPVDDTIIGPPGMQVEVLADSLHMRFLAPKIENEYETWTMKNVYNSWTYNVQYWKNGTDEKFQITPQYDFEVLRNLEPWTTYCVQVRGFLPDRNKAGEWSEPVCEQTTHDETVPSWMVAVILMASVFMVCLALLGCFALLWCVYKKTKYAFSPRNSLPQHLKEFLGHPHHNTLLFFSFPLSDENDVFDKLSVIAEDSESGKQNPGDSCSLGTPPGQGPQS


How the values were obtained:
[1] = biological target: T1, IL-10 receptor (IL-10R) on freshly …; experiment: cell-based or functional assay
[2] = biological target: T1, IL-10 receptor (IL-10R) on freshly …; experiment: cell-based or functional assay; remark: listed apart in the source
[3] = biological target: T2, IL-10-his wild type cytokine (human, UniProt P22301 19-178); experiment: SPR (ProteOn XPR36, 25 C), about 770 RU biotinylated IL-10R1-Fc on NLC chip, his-tagged cytokine as analyte
T2 construct: also called IL-10 wt; IL-10 wild type cytokine
Experimental: The SPR assay set-up is depicted in FIG. 15. About 770 RU of the biotinylated human IL-10R1 fused to an IgG Fc region (see SEQ ID NO: 87) were captured on the neutravidin-derivatized chip matrix of an NLC chip along vertical channels at a concentration of 30 μg/ml and a flow rate of 30 μl/min for a contact time or 240 s. Binding to huIL10R1 was measured at 5 different analyte concentrations (50, 10, 2, 0.4, 0.08 nM) by injections in horizontal orientation at 50 μl/min, recording the association rate for 180 s, the dissociation rate for 600 s. Running buffer (PBST) was injected along the sixth channel to provide an “in-line” blank for referencing. Association rates (kₒₙ) and dissociation rates (koff) were calculated using a simple 1:1 Langmuir binding model (ProteOn Manager software version 2.1) by simultaneously fitting the association and dissociation sensorgrams. The equilibrium dissociation constant (KD) was calculated as the ratio koff/kₒₙ. As human IL-10R1 could not be regenerated without a loss of activity, the subsequent steps of ligand capture and analyte injection were performed channel per channel using a freshly immobilized sensorchip surface for every interaction.
A decreased affinity to the IL-10R1 may represent a distinct advantage when targeting IL-10 to inflamed tissues through fusion with an antibody.

T2 sequence (P22301 other isoform, or with tags, fused parts or gaps limits assumed): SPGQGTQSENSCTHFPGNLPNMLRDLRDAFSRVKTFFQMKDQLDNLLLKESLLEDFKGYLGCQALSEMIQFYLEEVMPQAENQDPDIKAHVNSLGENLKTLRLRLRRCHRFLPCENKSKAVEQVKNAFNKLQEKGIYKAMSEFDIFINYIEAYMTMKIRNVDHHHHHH

EC50 [nM] pSTAT3 induction, Donor 1 [1] [nM]	EC50 [nM] pSTAT3 induction, Donor 2 [1] [nM]	EC50 [nM] pSTAT3 induction, Donor 3 [1] [nM]	EC50 [nM] pSTAT3 induction [2] [nM]	Binder	also measured
8.2	9.01	6.81	–	4G8 Fab-IL-10M1-Fab (other, Tandem Fab fragments with an engineered monomeric IL-10 between them; also called Fab-IL-10M1-Fab (clone 4G8)) heavy: [sequence of about 100 residues omitted]GWLGNFDYWGQGTLVTVSSASTKGPSVFPLAPSSKSTSGGTAALGCLVKDYFPEPVTVSWNSGALTSGVHTFPAVLQSSGLYSLSSVVTVPSSSLGTQTYICNVNHKPSNTKVDKKVEPKSCDGGGGSGGGGSGGGGSSPGQGTQSENSCTHFPGNLPNMLRDLRDAFSRVKTFFQMKDQLDNLLLKESLLEDFKGYLGCQALSEMIQFYLEEVMPQAENQDPDIKAHVNSLGENLKTLRLRLRRCHRFLPCENGGGSGGKSKAVEQVKNAFNKLQEKGIYKAMSEFDIFINYIEAYMTMKIRNGGGGSGGGGSGGGGS[sequence of about 100 residues omitted][sequence of about 120 residues omitted] light: EIVLTQSPGTLSLSPGERATLSCRASQSVSRSYLAWYQQKPGQAPRLLIIGASTRATGIPDRFSGSGSGTDFTLTISRLEPEDFAVYYCQQGQVIPPTFGQGTKVEIKRTVAAPSVFIFPPSDEQLKSGTASVVCLLNNFYPREAKVQWKVDNALQSGNSQESVTEQDSKDSTYSLSSTLTLSKADYEKHKVYACEVTHQGLSSPVTKSFNRGEC	–
0.154	0.194	0.087	–	4G8 Fab-IL-10 (other) heavy: [sequence of about 100 residues omitted]GWLGNFDYWGQGTLVTVSSASTKGPSVFPLAPSSKSTSGGTAALGCLVKDYFPEPVTVSWNSGALTSGVHTFPAVLQSSGLYSLSSVVTVPSSSLGTQTYICNVNHKPSNTKVDKKVEPKSCDGGGGSGGGGSGGGGSSPGQGTQSENSCTHFPGNLPNMLRDLRDAFSRVKTFFQMKDQLDNLLLKESLLEDFKGYLGCQALSEMIQFYLEEVMPQAENQDPDIKAHVNSLGENLKTLRLRLRRCHRFLPCENKSKAVEQVKNAFNKLQEKGIYKAMSEFDIFINYIEAYMTMKIRN light: EIVLTQSPGTLSLSPGERATLSCRASQSVSRSYLAWYQQKPGQAPRLLIIGASTRATGIPDRFSGSGSGTDFTLTISRLEPEDFAVYYCQQGQVIPPTFGQGTKVEIKRTVAAPSVFIFPPSDEQLKSGTASVVCLLNNFYPREAKVQWKVDNALQSGNSQESVTEQDSKDSTYSLSSTLTLSKADYEKHKVYACEVTHQGLSSPVTKSFNRGEC	–
0.557	0.43	0.116	–	4G8 Fab-scIL-10-Fab (other) heavy: [sequence of about 100 residues omitted]GWLGNFDYWGQGTLVTVSSASTKGPSVFPLAPSSKSTSGGTAALGCLVKDYFPEPVTVSWNSGALTSGVHTFPAVLQSSGLYSLSSVVTVPSSSLGTQTYICNVNHKPSNTKVDKKVEPKSCDGGGGSGGGGSGGGGSSPGQGTQSENSCTHFPGNLPNMLRDLRDAFSRVKTFFQMKDQLDNLLLKESLLEDFKGYLGCQALSEMIQFYLEEVMPQAENQDPDIKAHVNSLGENLKTLRLRLRRCHRFLPCENKSKAVEQVKNAFNKLQEKGIYKAMSEFDIFINYIEAYMTMKIRNGGGGSGGGGSGGGGSGGGGSSPGQGTQSENSCTHFPGNLPNMLRDLRDAFSRVKTFFQMKDQLDNLLLKESLLEDFKGYLGCQALSEMIQFYLEEVMPQAENQDPDIKAHVNSLGENLKTLRLRLRRCHRFLPCENKSKAVEQVKNAFNKLQEKGIYKAMSEFDIFINYIEAYMTMKIRNGGGGSGGGGSGGGGS[sequence of about 100 residues omitted][sequence of about 120 residues omitted] light: EIVLTQSPGTLSLSPGERATLSCRASQSVSRSYLAWYQQKPGQAPRLLIIGASTRATGIPDRFSGSGSGTDFTLTISRLEPEDFAVYYCQQGQVIPPTFGQGTKVEIKRTVAAPSVFIFPPSDEQLKSGTASVVCLLNNFYPREAKVQWKVDNALQSGNSQESVTEQDSKDSTYSLSSTLTLSKADYEKHKVYACEVTHQGLSSPVTKSFNRGEC	–
–	–	–	0.435	4B9 IgG-(IL-10M1)2 (other) heavy: EVQLLESGGGLVQPGGSLRLSCAASGFTFSSYAMSWVRQAPGKGLEWVSAIIGSGASTYYADSVKGRFTISRDNSKNTLYLQMNSLRAEDTAVYYCAKGWFGGFNYWGQGTLVTVSSASTKGPSVFPLAPSSKSTSGGTAALGCLVKDYFPEPVTVSWNSGALTSGVHTFPAVLQSSGLYSLSSVVTVPSSSLGTQTYICNVNHKPSNTKVDKKV[sequence of human IgG1 Fc with changes omitted]GGGGSGGGGSGGGGSSPGQGTQSENSCTHFPGNLPNMLRDLRDAFSRVKTFFQMKDQLDNLLLKESLLEDFKGYLGCQALSEMIQFYLEEVMPQAENQDPDIKAHVNSLGENLKTLRLRLRRCHRFLPCENGGGSGGKSKAVEQVKNAFNKLQEKGIYKAMSEFDIFINYIEAYMTMKIRN light: EIVLTQSPGTLSLSPGERATLSCRASQSVTSSYLAWYQQKPGQAPRLLINVGSRRATGIPDRFSGSGSGTDFTLTISRLEPEDFAVYYCQQGIMLPPTFGQGTKVEIKRTVAAPSVFIFPPSDEQLKSGTASVVCLLNNFYPREAKVQWKVDNALQSGNSQESVTEQDSKDSTYSLSSTLTLSKADYEKHKVYACEVTHQGLSSPVTKSFNRGEC	–
–	–	–	0.13	4B9 IgG-IL-10 (other) heavy: EVQLLESGGGLVQPGGSLRLSCAASGFTFSSYAMSWVRQAPGKGLEWVSAIIGSGASTYYADSVKGRFTISRDNSKNTLYLQMNSLRAEDTAVYYCAKGWFGGFNYWGQGTLVTVSSASTKGPSVFPLAPSSKSTSGGTAALGCLVKDYFPEPVTVSWNSGALTSGVHTFPAVLQSSGLYSLSSVVTVPSSSLGTQTYICNVNHKPSNTKVDKKV[sequence of human IgG1 Fc with changes omitted]GGGGSGGGGSGGGGSGGGGSSPGQGTQSENSCTHFPGNLPNMLRDLRDAFSRVKTFFQMKDQLDNLLLKESLLEDFKGYLGCQALSEMIQFYLEEVMPQAENQDPDIKAHVNSLGENLKTLRLRLRRCHRFLPCENKSKAVEQVKNAFNKLQEKGIYKAMSEFDIFINYIEAYMTMKIRN light: EIVLTQSPGTLSLSPGERATLSCRASQSVTSSYLAWYQQKPGQAPRLLINVGSRRATGIPDRFSGSGSGTDFTLTISRLEPEDFAVYYCQQGIMLPPTFGQGTKVEIKRTVAAPSVFIFPPSDEQLKSGTASVVCLLNNFYPREAKVQWKVDNALQSGNSQESVTEQDSKDSTYSLSSTLTLSKADYEKHKVYACEVTHQGLSSPVTKSFNRGEC	–
–	–	–	–	human IL-10R1 fused to an IgG Fc region, biotinylated (Fc fusion, biotinylated (site not stated), also called hu IL-10R1; IL-10R1-Fc) HGTELPSPPSVWFEAEFFHHILHWTPIPNQSESTCYEVALLRYGIESWNSISNCSQTLSYDLTAVTLDLYHSNGYRARVRAVDGSRHSNWTVTNTRFSVDEVTLTVGSVNLEIHNGFILGKIQLPRPKMAPANDTYESIFSHFREYEIAIRKVPGNFTFTHKKVKHENFSLLTSGEVGEFCVQVKPSVASRSNKGMWSKEECISLTRQYFTVTNVDEQLYFQGGS[sequence of human IgG1 Fc with C220A (EU numbers) omitted]GSGGLNDIFEAQKIEWHE	Kd [3]: 0.0389 nM; koff [3]: 0.000108 s⁻¹; kon [3]: 2.76e+06 M⁻¹ s⁻¹
